# Laboratory results from the antibiotic and cytotoxicity screens of Wong et al. (2023).
# The list shows a part of the results.
# Experiments:
# HSkMC = human skeletal muscle cells; experiment: cytotoxicity call (relative viability < 0.9); conditions: 10 µM
# HepG2 = experiment: cytotoxicity call (relative viability < 0.9); conditions: 10 µM
# S. aureus RN4220 = experiment: growth inhibition call (relative growth <= 0.2); conditions: 50 µM
SMILES,cytotoxicity call (HSkMC),cytotoxicity call (HepG2),growth inhibition call (S. aureus RN4220)
C[C@@H]1CN([C@H](C)CO)S(=O)(=O)c2ccc(C#Cc3ccncc3)cc2O[C@H]1CN(C)C(=O)C1CCC1,inactive,active,inactive
C[C@H](CO)N1C[C@H](C)[C@@H](CN(C)Cc2ccc(C(F)(F)F)cc2)Oc2c(NC(=O)NC3CCCCC3)cccc2C1=O,inactive,inactive,inactive
C[C@@H]1CN([C@@H](C)CO)C(=O)c2cccc(NC(=O)c3nc4ccccc4s3)c2O[C@H]1CN(C)S(C)(=O)=O,inactive,inactive,inactive
COc1ccc(NC(=O)Nc2ccc3c(c2)C(=O)N([C@@H](C)CO)C[C@@H](C)[C@@H](CN(C)C(=O)c2ccccc2)OCCCC[C@@H](C)O3)cc1,inactive,inactive,inactive
C[C@@H]1CN([C@H](C)CO)C(=O)c2cc(NC(=O)Nc3ccc(C(F)(F)F)cc3)ccc2O[C@@H](C)CCCCO[C@@H]1CN(C)C(=O)c1ccccc1,active,inactive,inactive
COc1ccc2c3c(n(c2c1)C)[C@H](CO)N(CC1CCOCC1)C[C@]13CN(C1)C(=O)Cc1cccnc1,inactive,inactive,inactive
